Test results as given in the supplement of paper PMC4967469.

Columns and labels:
Experiment in all cases: Viability of human cancer cell lines after 72 h of drug (GDSC screen)
Bexarotene = compound: C=C(c1ccc(C(=O)O)cc1)c1cc2c(cc1C)C(C)(C)CCC2(C)C [Bexarotene]; details: top dose 8 µM
Method: (§1)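 Human cancer cell lines in 384-well plates, medium with 10% serum, drug for 72 h over a 256-fold dose range (nine 2-fold or five 4-fold steps up to the top dose). Adherent lines were fixed and stained with the nucleic acid dye Syto60, suspension lines read with resazurin; signal relative to control wells, capped at 0 and 100%. One two-parameter sigmoid per drug and line, fitted in a mixed model over all curves with the slope shared within a line.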

NPK76-II-72-1 = compound: COc1cc(C(=O)NC2CCN(C)CC2)ccc1Nc1ncc2c(n1)N(C1CCCC1)C(C)CC(=O)N2C [NPK76-II-72-1]; details: top dose 10.24 µM; top dose inferred
Method: as §1

Etoposide = compound: COc1cc([C@@H]2c3cc4c(cc3[C@@H](O[C@@H]3O[C@@H]5CO[C@@H](C)O[C@H]5[C@H](O)[C@H]3O)[C@H]3COC(=O)[C@H]23)OCO4)cc(OC)c1O [Etoposide]; details: top dose 16 µM
Method: as §1

YK 4-279 = compound: COc1ccc(C(=O)CC2(O)C(=O)Nc3c(Cl)ccc(Cl)c32)cc1 [YK 4-279]; details: top dose 10 µM
Method: as §1

BMS-345541 = compound: Cc1ccc2nc(NCCN)c3ncc(C)n3c2c1 [BMS-345541]; details: top dose 16 µM
Method: as §1

AZD7762 = compound: NC(=O)Nc1cc(-c2cccc(F)c2)sc1C(=O)N[C@H]1CCCNC1 [AZD7762]; details: top dose 2 µM
Method: as §1

GSK-650394 = compound: O=C(O)c1ccc(-c2c[nH]c3ncc(-c4ccccc4)cc23)cc1C1CCCC1 [GSK-650394]; details: top dose 16 µM; top dose inferred
Method: as §1

XAV 939 = compound: Oc1nc(-c2ccc(C(F)(F)F)cc2)nc2c1CSCC2 [XAV 939]; details: top dose 5 µM; top dose inferred
Method: as §1

Cell Line | AUC (Bexarotene) | IC50 (Bexarotene) | AUC (NPK76-II-72-1) | IC50 (NPK76-II-72-1) | AUC (Etoposide) | IC50 (Etoposide) | AUC (YK 4-279) | IC50 (YK 4-279) | AUC (BMS-345541) | IC50 (BMS-345541) | AUC (AZD7762) | IC50 (AZD7762) | AUC (GSK-650394) | IC50 (GSK-650394) | AUC (XAV 939) | IC50 (XAV 939)
HCC70 (breast, adherent) | 0.973 | > 8 µM | 0.901 | > 10.2 µM | 0.969 | > 16 µM | 0.93 | > 10 µM | 0.884 | > 16 µM | 0.686 | 0.41 µM | 0.984 | > 16 µM | 0.987 | > 5 µM
HCC1143 (breast, adherent) | 0.778 | 4.67 µM | 0.714 | 3.32 µM | 0.932 | > 16 µM | 0.798 | 7.11 µM | 0.869 | > 16 µM | 0.607 | 0.276 µM | 0.979 | > 16 µM | 0.965 | > 5 µM
HCC1187 (breast, suspension) | 0.967 | > 8 µM | 0.761 | 3.47 µM | 0.953 | > 16 µM | 0.545 | 0.821 µM | 0.841 | 10.3 µM | 0.556 | 0.176 µM | 0.972 | > 16 µM | 0.793 | 2.15 µM
HCC1395 (breast, adherent) | 0.943 | > 8 µM | 0.953 | > 10.2 µM | 0.965 | > 16 µM | 0.801 | 6.06 µM | 0.959 | > 16 µM | 0.61 | 0.267 µM | 0.982 | > 16 µM | 0.972 | > 5 µM
HCC1428 (breast, adherent) | 0.909 | > 8 µM | 0.979 | > 10.2 µM | 0.967 | > 16 µM | 0.88 | > 10 µM | 0.955 | > 16 µM | 0.949 | > 2 µM | 0.981 | > 16 µM | 0.986 | > 5 µM
HCC1500 (breast, adherent) | 0.961 | > 8 µM | 0.975 | > 10.2 µM | 0.933 | > 16 µM | 0.929 | > 10 µM | 0.87 | 15.8 µM | 0.955 | > 2 µM | 0.986 | > 16 µM | 0.983 | > 5 µM
HCC1569 (breast, adherent) | 0.964 | > 8 µM | 0.91 | > 10.2 µM | 0.665 | 3.37 µM | 0.76 | 4.64 µM | 0.877 | > 16 µM | 0.861 | > 2 µM | 0.915 | > 16 µM | 0.941 | > 5 µM
HCC1937 (breast, adherent) | 0.961 | > 8 µM | 0.928 | > 10.2 µM | 0.814 | 10.4 µM | 0.888 | > 10 µM | 0.932 | > 16 µM | 0.641 | 0.327 µM | 0.953 | > 16 µM | 0.958 | > 5 µM
HCC2157 (breast, suspension) | 0.965 | > 8 µM | 0.987 | > 10.2 µM | 0.847 | 12.6 µM | 0.977 | > 10 µM | 0.914 | > 16 µM | 0.657 | 0.348 µM | 0.832 | 10.9 µM | 0.985 | > 5 µM
HCC2218 (breast, suspension) | 0.984 | > 8 µM | 0.981 | > 10.2 µM | 0.96 | > 16 µM | 0.944 | > 10 µM | 0.713 | 4.74 µM | 0.979 | > 2 µM | 0.983 | > 16 µM | 0.981 | > 5 µM
HCC-44 (lung adenocarcinoma, adherent) | 0.87 | 7.13 µM | 0.828 | 6.12 µM | 0.555 | 1.41 µM | 0.592 | 1.11 µM | 0.685 | 3.25 µM | 0.851 | 1.47 µM | 0.615 | 2.05 µM | 0.934 | > 5 µM
HCC-78 (lung adenocarcinoma, adherent) | 0.968 | > 8 µM | 0.94 | > 10.2 µM | 0.737 | 5.41 µM | 0.72 | 2.97 µM | 0.815 | 10.7 µM | 0.705 | 0.526 µM | 0.983 | > 16 µM | 0.926 | > 5 µM
HD-MY-Z (Hodgkin lymphoma, adherent) | 0.985 | > 8 µM | 0.834 | 6.74 µM | 0.823 | 9.53 µM | 0.721 | 2.66 µM | 0.834 | 10.5 µM | 0.415 | 0.0732 µM | 0.973 | > 16 µM | 0.959 | > 5 µM
HDLM-2 (Hodgkin lymphoma, suspension) | 0.867 | 7.03 µM | 0.989 | > 10.2 µM | 0.848 | 11.6 µM | 0.757 | 3.39 µM | 0.872 | 14.9 µM | 0.816 | 1.09 µM | 0.981 | > 16 µM | 0.984 | > 5 µM
HDQ-P1 (breast, adherent) | 0.957 | > 8 µM | 0.961 | > 10.2 µM | 0.784 | 8.25 µM | 0.894 | > 10 µM | 0.949 | > 16 µM | 0.851 | > 2 µM | 0.935 | > 16 µM | 0.956 | > 5 µM
HEC-1 (endometrium, adherent) | 0.956 | > 8 µM | 0.989 | > 10.2 µM | 0.618 | 2.08 µM | 0.69 | 2.08 µM | 0.977 | > 16 µM | 0.809 | 0.996 µM | 0.886 | > 16 µM | 0.988 | > 5 µM
HGC-27 (stomach, adherent) | 0.923 | > 8 µM | 0.902 | 9.78 µM | 0.187 | 0.142 µM | 0.489 | 0.587 µM | 0.847 | 9.21 µM | 0.748 | 0.561 µM | 0.434 | 0.681 µM | 0.955 | > 5 µM
HMV-II (melanoma, adherent) | 0.956 | > 8 µM | 0.871 | > 10.2 µM | 0.432 | 0.624 µM | 0.772 | 4.73 µM | 0.861 | > 16 µM | 0.873 | > 2 µM | 0.728 | 5.22 µM | 0.974 | > 5 µM
HN (head and neck, adherent) | 0.975 | > 8 µM | 0.989 | > 10.2 µM | 0.847 | 10.7 µM | 0.523 | 0.718 µM | 0.985 | > 16 µM | 0.809 | 0.969 µM | 0.987 | > 16 µM | 0.969 | > 5 µM
HO-1-u-1 (head and neck, adherent) | 0.982 | > 8 µM | 0.939 | > 10.2 µM | 0.572 | 1.56 µM | 0.844 | 6.74 µM | 0.849 | 11.2 µM | 0.483 | 0.112 µM | 0.757 | 5.31 µM | 0.985 | > 5 µM
HOP-62 (lung adenocarcinoma, adherent) | 0.956 | > 8 µM | 0.923 | > 10.2 µM | 0.411 | 0.57 µM | 0.639 | 1.52 µM | 0.719 | 4.15 µM | 0.552 | 0.174 µM | 0.808 | 8.23 µM | 0.968 | > 5 µM
HOP-92 (large cell lung carcinoma, adherent) | 0.964 | > 8 µM | 0.981 | > 10.2 µM | 0.718 | 4.63 µM | 0.738 | 3.38 µM | 0.976 | > 16 µM | 0.598 | 0.242 µM | 0.971 | > 16 µM | 0.981 | > 5 µM
HOS (osteosarcoma, adherent) | 0.979 | > 8 µM | 0.992 | > 10.2 µM | 0.282 | 0.273 µM | 0.655 | 1.55 µM | 0.988 | > 16 µM | 0.767 | 0.627 µM | 0.644 | 2.33 µM | 0.984 | > 5 µM
HSC-2 (head and neck, adherent) | 0.947 | > 8 µM | 0.987 | > 10.2 µM | 0.46 | 0.783 µM | 0.487 | 0.578 µM | 0.938 | > 16 µM | 0.808 | 0.94 µM | 0.819 | 8.22 µM | 0.983 | > 5 µM
HSC-39 (stomach, suspension) | 0.991 | > 8 µM | 0.99 | > 10.2 µM | 0.976 | > 16 µM | 0.74 | 2.68 µM | 0.902 | 15.8 µM | 0.512 | 0.134 µM | 0.99 | > 16 µM | 0.968 | > 5 µM
HT-3 (cervix, adherent) | 0.984 | > 8 µM | 0.921 | > 10.2 µM | 0.531 | 1.22 µM | 0.825 | 6.15 µM | 0.871 | 15.6 µM | 0.721 | 0.534 µM | 0.915 | > 16 µM | 0.935 | > 5 µM
HT-1197 (bladder, adherent) | 0.855 | > 8 µM | 0.978 | > 10.2 µM | 0.811 | 10.5 µM | 0.82 | 7.14 µM | 0.892 | > 16 µM | 0.891 | > 2 µM | 0.981 | > 16 µM | 0.972 | > 5 µM
HT-1376 (bladder, adherent) | 0.954 | > 8 µM | 0.985 | > 10.2 µM | 0.731 | 5.2 µM | 0.906 | > 10 µM | 0.972 | > 16 µM | 0.92 | > 2 µM | 0.854 | > 16 µM | 0.928 | > 5 µM
HUTU-80 (digestive system, adherent) | 0.843 | 4.29 µM | 0.884 | 7.79 µM | 0.222 | 0.186 µM | 0.557 | 0.867 µM | 0.867 | 10.5 µM | 0.622 | 0.255 µM | 0.457 | 0.778 µM | 0.991 | > 5 µM

A lower IC50 marks a more sensitive line; a limit (>, <) means that the fit lies beyond the doses tested. AUC is the area under the same curve over the 256-fold range up to the top dose, as a fraction; values near 1 show little effect. For some assays here: The top dose, if marked as inferred, was derived from the fitted curves, not read from the paper.
